As a reminder, the % Inhibition is the change of the read-out against control, counted positive when it falls.

In all, about 150,000 compounds went through this assay and about 540 (0.36%) showed an effect of 50% or more. Some of the results follow.

The results in this text go back to ChEMBL document CHEMBL4888484, “Replenishing the malaria drug discovery pipeline: Screening and hit evaluation of the MMV Hit Generation Library 1 (HGL1) against asexual blood stage Plasmodium falciparum ,using a nano luciferase reporter read-out” (2022).

In this experiment the test system is Plasmodium falciparum. The experiment can be described thus: Primary screen in NF54 nanoGlo assay, in single point, at 2uM, 72h; a lower Z score goes with more inhibition. It is filed as functional, Erythrocyte. The settings on record: timepoint 72 hour.
For `COC(=O)c1ccc(NC(=O)N2CCC[C@H](c3nnn[nH]3)C2)cc1`, the “% Inhibition” value came to 5% and the Z score is reported as -0.93.

As to `CCC(C)C(NC(=O)c1ccc(Br)cc1)C(=O)Nc1nnc(-c2cccc(Br)c2)s1` (centres undefined), the “% Inhibition” value is reported as -3% and the Z score is 0.45.

Turning to `Cc1cc(Cl)cc2c1N(C(=O)CN(C)S(=O)(=O)c1ccccc1)CCC2`, the “% Inhibition” value is -2% and the Z score was found to be 0.19.

For `O=C(Nc1ccccc1)OC1CCCC(NS(=O)(=O)c2ccc3c(c2)OCCO3)C1` (centres undefined), the “% Inhibition” value is -14% and the Z score was 2.57.

In the case of `Cc1nc(-c2ccccn2)n(Cc2nnnn2-c2ccccc2)n1`, the “% Inhibition” value stood at 5% and the Z score is recorded as -0.66.

Consider `O=C(NCCOc1ccccc1)c1ccc(CN2CCOCC2)cc1`, for which the “% Inhibition” value is reported as -10% and the Z score was 1.38.

Consider `C[C@]1(c2ccc(S(N)(=O)=O)cc2)NC(=O)N(CC2CCCCC2)C1=O`, for which the “% Inhibition” value was found to be 2% and the Z score is reported as -0.27.

In the case of `CN1CC[C@@]2(CCC1=O)CN(C(=O)Nc1ccccc1Cl)CCN2C`, the “% Inhibition” value is listed as -8% and the Z score is 1.24.

As for `CC(C)(C)OC(=O)N1CC(Cc2nc(C(C)(C)C)no2)C1`, the “% Inhibition” value is listed as -5% and the Z score is 0.87.

Turning to `O=C(Cc1cccs1)N(Cc1cnc2ccccn12)c1ccccc1`, the “% Inhibition” value is on record as -1% and the Z score is on record as 0.1.

Consider `Clc1ccccc1-c1nnc(-c2ccc(-n3ccnc3)nc2)o1`, for which the “% Inhibition” value amounted to 0% and the Z score was determined as 0.03.

In the case of `O=C(c1ccc(F)cc1F)N1CCCN(CCC2OCCO2)CC1`, the “% Inhibition” value is reported as -16% and the Z score was 2.06.

On to `O=C(NCC#CCN1CCc2ccccc2C1)c1ccc(=O)[nH]c1`, for which the “% Inhibition” value is reported as -9% and the Z score is on record as 0.98.

For the compound `COc1cccc2c1CC[C@]2(N)C(=O)NC1CCCC1`, the “% Inhibition” value was -8% and the Z score was 1.2.

For the compound `Cn1nc(-c2nc(C3CC3)no2)c2c1CCN(C(=O)Nc1ccccc1C(F)(F)F)C2`, the “% Inhibition” value is 4% and the Z score is on record as -0.65.

As to `CCc1nn(C)c2c(=O)n(Cc3cccnc3)cnc12`, the “% Inhibition” value was -3% and the Z score came to 0.41.

Consider `CNC(=O)c1cnc(C=Cc2nccn2Cc2ccccc2)s1`, for which the “% Inhibition” value is -14% and the Z score came out at 2.67.

In the case of `C#CCN(C(=O)CN1C(=O)COc2ccccc21)C1CC1`, the “% Inhibition” value is -14% and the Z score is recorded as 2.07.

As to `Cc1[nH]c(=O)c(C#N)c(C)c1CCC(=O)N(C[C@H]1CCOC1)C1CC1`, the “% Inhibition” value is listed as -14% and the Z score was found to be 1.65.

On to `CCn1cc(C(=O)Nc2nnc(CCN(C)C)s2)cn1`, for which the “% Inhibition” value is given as 0% and the Z score is on record as 0.05.

For the compound `CC(=O)c1ccc(N2N=C(C)C3=S2N(c2ccc(C(C)=O)cc2)N=C3C)cc1`, the “% Inhibition” value is -31% and the Z score was determined as 3.64.

For the compound `C#CCCC1(CCC(=O)N2CCN(CCOC)[C@@H](C)C2)N=N1`, the “% Inhibition” value was -10% and the Z score is 1.19.

Turning to `Cc1c[nH]c(CN(C)C(=O)c2cc3c(Cl)cccc3[nH]2)n1`, the “% Inhibition” value is given as -7% and the Z score is recorded as 1.17.

Turning to `Cc1nn2c(nc1=O)-c1ccccc1NC2C1CCC(C)(C(=O)O)C1(C)C` (centres undefined), the “% Inhibition” value is reported as -6% and the Z score is 0.87.

As for `CC(C)N(C)C(=O)c1c[nH]nc1-c1ccc(Cl)s1`, the “% Inhibition” value is -27% and the Z score was found to be 2.72.

For `O=C1[C@@H](N2CCc3ccc(F)cc32)CCN1C1CC1`, the “% Inhibition” value is given as -5% and the Z score is reported as 0.74.

In the case of `COC(=O)[C@]1(NC(=O)c2cccc(Cl)c2F)C[C@@H](O)C1`, the “% Inhibition” value is given as 1% and the Z score is on record as -0.17.

`O=C(CCc1nnn2c1CN(Cc1c[nH]c3ccccc13)CC2)N1CCCC1`: the “% Inhibition” value is on record as -15% and the Z score stood at 2.81.

Regarding `C[C@@H](C(=O)Nc1nccs1)N(C)Cc1nccn1C(F)F`, the “% Inhibition” value is given as -6% and the Z score is recorded as 0.57.

Consider `O=C(NCCc1nc2ccccc2[nH]1)c1ccc(CN2C(=O)CNC2=O)cc1`, for which the “% Inhibition” value is given as -20% and the Z score worked out at 2.68.

For `CCN(C[C@H]1CCCO1)C(=O)c1c[nH]nc1-c1ccccc1`, the “% Inhibition” value was -17% and the Z score was determined as 2.18.

On to `O=S(=O)(Nc1nnc[nH]1)c1csc2ccc(Cl)cc12`, for which the “% Inhibition” value worked out at 22% and the Z score is -2.5.

Regarding `O=C(c1ccc2c(c1)OCO2)N(Cc1cccs1)C1CCOCC1`, the “% Inhibition” value is on record as -12% and the Z score turned out to be 1.91.

Turning to `c1ccc(-c2csc(Cc3nc(-c4cccs4)no3)n2)cc1`, the “% Inhibition” value is -16% and the Z score is listed as 2.09.

Take `CCN(CC(=O)Nc1c(F)cccc1F)C(=O)c1cccnc1O`: the “% Inhibition” value is on record as -29% and the Z score is recorded as 3.35.

Take `Cc1cnc(CN2C[C@]3(CCCN(C(=O)c4cccnn4)C3)CCC2=O)cn1`: the “% Inhibition” value is -21% and the Z score came to 2.21.

For the compound `Cc1cc(C(=O)NCc2c[nH]c(=O)[nH]c2=O)c(C)n1C`, the “% Inhibition” value is on record as -14% and the Z score was determined as 1.87.

On to `O=C1[C@@H]2C[C@H](O)CCN2C(=O)CN1Cc1cccc2[nH]ccc12`, for which the “% Inhibition” value is given as -8% and the Z score is 1.11.

With `O=C(NC(Cc1ccccc1Cl)c1ccccc1)N1CC2CCC1C(CO)C2` (centres undefined), the “% Inhibition” value is listed as -5% and the Z score came out at 0.85.

For `CN(C)C(=O)N1C[C@H]2CC[C@@H](C1)N(C(=O)c1cc(-c3ccccc3F)n[nH]1)C2`, the “% Inhibition” value was -5% and the Z score is on record as 0.83.

For `CC(=O)Oc1c(-c2ccc(NC(=O)c3ccccc3)cc2)c(-c2cccc(C)c2)nn1-c1ccc(C)cc1C`, the “% Inhibition” value is -23% and the Z score was 2.2.

Consider `CCOC(=O)C1=C(c2ccccc2)S/C(=C2/C(=S)C(C)(C)N(C(=O)C(F)(F)F)c3cc(C)c(C)cc32)S1`, for which the “% Inhibition” value is listed as -1% and the Z score came out at 0.16.

Regarding `COCCN(CC(=O)N1CCc2sccc2[C@@H]1COc1ccc(C(C)C)cc1)C(=O)c1ccc(F)cc1`, the “% Inhibition” value was -13% and the Z score is reported as 1.69.

Turning to `O=c1c2ccccc2ncn1Cc1nc(-c2cn3ccccc3n2)no1`, the “% Inhibition” value is listed as -11% and the Z score amounted to 1.42.

Take `O=C(c1cc(F)cc(Cl)c1)N1C[C@@H]2CC[C@@H](C2)C1`: the “% Inhibition” value is -4% and the Z score stood at 0.52.

For the compound `CCn1ccnc1[C@H](CCc1ccccc1)OC(=O)c1csc(COC)n1`, the “% Inhibition” value is given as -10% and the Z score came to 1.17.

In the case of `O=C(c1cccn2c(=O)c3ccc(Cl)cc3nc12)N1CCN(c2ccccc2)CC1`, the “% Inhibition” value is on record as 5% and the Z score is on record as -0.55.

Take `Cc1ccn2c(=O)cc(CN(C)Cc3cscn3)nc2c1`: the “% Inhibition” value is on record as -2% and the Z score worked out at 0.36.

Turning to `CCn1ncc(NC(=O)Cn2cc(-c3ncc(F)c(NC)n3)cn2)n1`, the “% Inhibition” value is reported as -3% and the Z score is recorded as 0.36.

As to `Cc1ccc(NC(=O)Nc2ccc(C)c(Oc3ccc(C#N)cc3)c2)cc1Oc1ccc(C#N)cc1`, the “% Inhibition” value is reported as 5% and the Z score is -0.54.

In the case of `CCc1cccc(C)c1NC(=O)C(=O)c1cccn1C`, the “% Inhibition” value worked out at 8% and the Z score is -0.75.

Turning to `Cc1cc(S(=O)(=O)N(CCN(C)C)C2CCN(C)CC2)c(C)o1`, the “% Inhibition” value is listed as -16% and the Z score turned out to be 1.43.
